Assay results as given in PubChem BioAssay AID1460 (National Center for Advancing Translational Sciences (NCATS), 2008).
The campaign covered roughly 270,000 compounds. About 5,800 (2.1%) were called active. Another 16% or so got no clear call; they are omitted. The call rests on the fitted dose curve; in most records, active means well fitted inhibition curve with a large enough effect; inconclusive means small, poorly fitted or top-dose-only effect; inactive means flat fitted curve, though single readings scatter. This is a selection; strong and weak results do not stand in their true shares. Some compounds were tested as several samples or in several runs, with calls that do not always agree.
Further: nearly all actives have a fitted effect of over 55% in size.
On the % scale 0 is the no-effect control and ±100 the full control effect; potency means the concentration at half of the fitted maximal effect.

What follows are molecules tested against Microtubule-associated protein tau (Homo sapiens) (UniProt P10636) (assay: qHTS for Inhibitors of Tau Fibril Formation, Thioflavin T Binding). Conditions: recombinant tau K18 P301L (four-repeat tau fragment), heparin-induced fibrillization, ThT fluorescence; series mostly up to 57.4 µM; activity, negative = inhibition: at the top concentration.
UniProt P10636, sequence (P10636 whole entry, looked up, the tested form may be a part): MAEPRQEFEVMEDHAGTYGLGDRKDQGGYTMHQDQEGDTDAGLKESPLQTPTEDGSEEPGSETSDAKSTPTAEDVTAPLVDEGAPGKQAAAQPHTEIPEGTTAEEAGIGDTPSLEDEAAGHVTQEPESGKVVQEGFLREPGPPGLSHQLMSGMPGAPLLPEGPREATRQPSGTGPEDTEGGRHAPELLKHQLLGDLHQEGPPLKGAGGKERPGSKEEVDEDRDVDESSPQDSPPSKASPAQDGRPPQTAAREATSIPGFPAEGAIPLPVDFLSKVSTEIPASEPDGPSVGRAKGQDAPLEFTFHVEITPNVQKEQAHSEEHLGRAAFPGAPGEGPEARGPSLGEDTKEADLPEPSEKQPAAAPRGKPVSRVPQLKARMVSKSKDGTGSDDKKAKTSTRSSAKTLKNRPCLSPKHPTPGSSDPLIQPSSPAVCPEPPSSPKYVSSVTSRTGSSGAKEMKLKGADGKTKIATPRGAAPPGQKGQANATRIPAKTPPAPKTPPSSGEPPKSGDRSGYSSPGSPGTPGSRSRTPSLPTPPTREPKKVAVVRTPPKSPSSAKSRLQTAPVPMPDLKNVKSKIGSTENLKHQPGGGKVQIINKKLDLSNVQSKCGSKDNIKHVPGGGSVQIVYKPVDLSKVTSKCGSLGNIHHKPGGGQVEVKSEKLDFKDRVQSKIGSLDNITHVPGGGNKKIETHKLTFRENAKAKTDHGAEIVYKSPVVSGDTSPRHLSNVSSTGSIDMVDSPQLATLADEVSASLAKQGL
Summary of the method: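 Heparin-induced fibrillization of the P301L-mutant K18 repeat-domain fragment of human tau was followed by ThT binding in quantitative high-throughput format.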
`CC(CN1c2ccccc2Sc2ccccc21)N(C)C` (stereo unspecified) was tested, and the Potency was “inactive”. For `COC(=O)c1ccc(CN2[C@H](C(=O)OC)C[C@@]3(O)[C@@H](O)[C@@H](O)[C@@H](O)C[C@@H]23)cc1`, the Potency was “inactive”. `N#C/C(=C/c1ccc2c(c1)OCO2)C(=O)NCCc1c[nH]c2ccccc12` was tested, and the Potency was active: 12.6 µM. With `O=C1/C(=C\c2ccco2)CCC/C1=C\c1ccco1` the Potency was active: 17.8 µM. For `O=C1c2ccccc2-c2n[nH]c3cccc1c23`, the Potency was “inactive”. In the case of `O=C(N/N=C/c1ccc(Cl)cc1)c1nc2ccc([N+](=O)[O-])cc2c(=O)[nH]1`, the Potency is reported as active: 15.8 µM. With `COc1cccc(-c2cc(=O)c3cc(NC(=O)c4ccc(Cl)cc4)ccc3[nH]2)c1` the “activity, negative = inhibition” value was inactive: -17.7% [at 81.4 µM]. In the case of `OCc1ccc(-c2nn(Cc3ccccc3)c3ccccc23)o1`, the “activity, negative = inhibition” value is reported as inactive: -15.9%. For `CO/N=C(\C(=O)N[C@@H]1C(=O)N2C(C(=O)O)=C(COC(C)=O)CS[C@H]12)c1csc(N)n1` (stereo in doubt), the “activity, negative = inhibition” value was inactive: -3.88%. For `Cc1ccccc1Nc1c(-c2ccc(N3CCOCC3)cc2)nc2ncccn12`, the “activity, negative = inhibition” value was inactive: -23%. With `CC1(OC(=O)CCc2ccccc2)C(=O)C=C2C=C(c3ccc(C#N)cc3)N(Cc3ccccc3)C=C2C1=O` (stereo unspecified) the activity, negative = inhibition was inactive: -5.38% [at 11.5 µM]. In the case of `CCCn1c(O)c(N=Nc2ccc3ccccc3n2)c2ccccc21`, the Potency is reported as active: 12.6 µM. In the case of `CCCCCCCC#Cc1ccccc1/C=N/S(=O)c1ccc(C)cc1` (stereo unspecified), the activity, negative = inhibition is reported as inactive: -19.9% [at 11.5 µM]. For `O=C(C1=C[C@H](c2ccc(Br)cc2)C[C@H](OCCCCO)O1)N1CCN(Cc2ccc3c(c2)OCO3)CC1`, the “activity, negative = inhibition” value was inactive: -14.3%. With `COC(=O)CCCC1=CC2=C(c3ccccc3)C(=O)C(C)(OC(=O)C3CCCC3)C(=O)C2=CN1C1CC1` (stereo unspecified) the activity, negative = inhibition was inactive: 1.34% [at 11.5 µM]. In the case of `Cc1occc1C(=O)N/N=C/C=C\c1ccccc1[N+](=O)[O-]`, the “activity, negative = inhibition” value is reported as inactive: -18%. With `O=C(O)/C(=C\c1ccco1)NC(=O)c1ccccc1` the “activity, negative = inhibition” value was inactive: 2.1%. `COC(=O)C1=C(C)N(Cc2ccccc2)C2=C(C(C)=O)C(c3ccccc3)[C@@](O)(C(=O)OC)C(=O)N2C1c1ccccc1` (stereo partly specified) was tested, and the activity, negative = inhibition was inactive: -4.85% [at 11.5 µM]. With `CN=c1scc(-c2cccs2)n1/N=C/c1ccc(O)c(O)c1O` the Potency was active: 12.6 µM. `C[C@H]1c2cccc(O)c2C(O)=C2C(=O)[C@]3(O)C(O)=C(C(N)=O)C(=O)[C@@H](N(C)C)[C@@H]3[C@@H](O)[C@@H]21` was tested, and the Potency was “inactive”. For `COC(=O)CCCC1=CC2=CC(=O)C(C)(OC(=O)c3cccs3)C(=O)C2=CN1Cc1ccc2c(c1)OCO2` (stereo unspecified), the activity, negative = inhibition was inactive: -15.3% [at 11.5 µM]. In the case of `Fc1ccc(Nc2c(-c3ccco3)nc3ccccn23)cc1`, the “activity, negative = inhibition” value is reported as inactive: 3.32%. `CC1CCN(C(=O)C(C)Sc2nc(-c3ccccc3)cc(C(F)(F)F)n2)CC1` (stereo unspecified) was tested, and the “activity, negative = inhibition” value was inactive: -14.1%. With `O=C1CSC(=S)N1Cc1cccnc1` the Potency was active: 31.6 µM. With `C[C@@H]1CC[C@]2(C(=O)O)CC[C@]3(C)C(=CCC4[C@@]5(C)C[C@@H](O)[C@H](O)[C@@](C)(CO)C5CC[C@]43C)C2[C@H]1C` (stereo partly specified) the “activity, negative = inhibition” value was inactive: -15.6%. With `Cc1cc(N2CCN(C)CC2)nc2ccc(NC(=O)Nc3cccc(Cl)c3)cc12` the Potency was active: 14.1 µM. `COC(=O)c1[nH]c2ccc(Br)cc2c1NC(=O)Oc1ccccc1` was tested, and the Potency was active: 15.8 µM. For `COc1ccc(C(C)n2c(C)c3c(C)nnc(C)c3c2C)cc1` (stereo unspecified), the “activity, negative = inhibition” value was inactive: -10.5%. With `COC(=O)CCC(=O)OC1(C)C(=O)C2=CN(CCCOC(C)C)C(c3ccc(OC)cc3)=CC2=C(Br)C1=O` (stereo unspecified) the Potency was active: 15.8 µM. For `CC(C)=CCC/C(C)=C/COc1ccc2ccc(=O)oc2c1`, the Potency was “inactive”. `COC(=O)c1c(-c2cccs2)csc1NC(=O)c1cc(OC)c(OC)c(OC)c1` was tested, and the Potency was active: 11.2 µM. For `COC(=O)[C@@]1(Cc2ccc(F)cc2)[C@H]2c3cc(C(=O)N(C)C)n(Cc4ccccn4)c3C[C@H]2CN1C(=O)c1ccccc1`, the “activity, negative = inhibition” value was inactive: -8.21%. In the case of `O=C(N/N=C/C(Cl)=C\c1ccccc1)c1cnccn1`, the “activity, negative = inhibition” value is reported as inactive: -7.23%. With `O=C(C1=C[C@H](c2ccccc2)C[C@H](OCc2ccc(CO)cc2)O1)N1CCCCCCC1` the “activity, negative = inhibition” value was inactive: -16.2%. With `CO[C@@]12C[C@@H](COC(=O)c3cncc(Br)c3)CN(C)[C@H]1Cc1cn(C)c3cccc2c13` the “activity, negative = inhibition” value was inactive: -19.7%. In the case of `CCO[C@H]1OC(C(=O)Nc2ccccc2)=C[C@@H](c2coc3ccccc3c2=O)[C@@H]1CCCO`, the “activity, negative = inhibition” value is reported as inactive: -15.9%.
